Source: the supplement of paper PMC11417369
Some of the results follow.

Tested on: PfAP2-HC AP2 domain (GST-tagged)
Experiment: gcPBM binding intensity (ln(normalized median fluorescence intensity)); higher = stronger DNA binding
How it was run: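 Using an Agilent 4 × 180k array, primer-extended double-stranded 36-bp intergenic genomic probes and negative controls were exposed for 1 h to GST-fused P. falciparum DNA-binding domains expressed in E. coli. Binding was carried out in 1× PBS with 1% milk, 0.2 mg/ml BSA, 0.5% salmon testes DNA and 0.03% Triton X-100, and protein was detected with Alexa488 anti-GST antibody and a 488 nm scan. Binding intensity is the highest Masliner-normalised natural-log median intensity across replicate spots of either probe orientation.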

Sequence | gcPBM binding intensity (ln)
ATTTAAATAATATGTACACACATTTAAAAAATTATA [CACACA_site2816] | 9.65
TAAGAAAAAGGCACACGTACATAATTCAAAATAAAT [XGTACX_site982] | 10.2
CCAATGAGGATATATACACACATACATTAAAAAAAT [CACACA_site5090] | 9.86
ATATATATGTATGTATGTACTTATTTATTTATTTAT [XGTACX_site7740] | 9.77
TTTTTTTTCACACATTGTACTTTTTTATAAAATATA [XGTACX_site4351] | 9.74
AATATATAGGTATTTACACACAATGTGAGATCTATA [CACACA_site3407] | 9.89
ATTTATGAAAAGTAAAGTACACACAGGAAAAAAAAA [XGTACX_site3564] | 9.87
GTCAACTTGTGATAAGTGCATATATATAATAAAATG | 9.62
CGAAATAAATCTTATGCACACAAATAATTAATTAAA [CACACA_site8491] | 9.72
AAAAAAATATAATATTTGAATAAATATAATAATATG [XGTACX_negctrl_site477] | 9.58
AATTATCAAAGTCTATACATACATACATACATACAT [GTGCAC_negctrl_site243] | 9.82
TAATTATAATAAAAAGGTACAGAAAAGTTATACTCA [XGTACX_site6111] | 9.61
GTTATAACTCAAATATGTACATATTATAAAACATAT [XGTACX_site6693] | 9.66
TATAAAAATAAGCACACACACAAATATATATTTATT [CACACA_site922] | 10.3
TTATAGAACTATATTGCACACATAATATATATATAT [CACACA_site9042] | 9.85
AAAAAAAAAAAAAAAGGTACACAAATACGTCCTGCA [XGTACX_site3354] | 9.64
TATACATATTTACAAGTGCATAATATTTTACAAAAA | 9.53
ATAAAATAAATAAATATAAATATATATATATATATA [TGCATGCA_negctrl_site358] | 9.64
CACTCTTAAAATAAGGTGCACTATATAACGTGATTA [GTGCAC_site9422] | 9.51

Sequence | gcPBM binding intensity (ln)
TCTTCTAATTTACCTACACACAGGAGATATATAAAT [CACACA_site6276] | 9.7
TATATATATATATATTGTACAAAATATTTATATGTT [XGTACX_site436] | 9.78
TAATTAATTTATTAGTTGCACTGTACCATTAGAGTA | 9.48
GTTCATAAATTAAACACACACACACCCCTGGATACC [CACACA_site3331] | 10.4
ATCAACATTATGGTTAGTACTTAGTGAATTGTTAAT [XGTACX_site4926] | 9.61
GTGTAATATATTTTTCGTACATATTATATATATATA [XGTACX_site1675] | 9.74
TTATACACCTTTCATTGTACATATAATTTATATTCT [XGTACX_site8685] | 9.85
AATATTCAATATATATATATATATAATATTAATATA [GTGCAC_negctrl_site571] | 9.48
ATATTTTATTTAATTACACACAATATTGCAATTTGT [CACACA_site669] | 10.2
AAGGATTTTTTATACACACACTAACTAATGTATATA [CACACA_site7163] | 9.97
TAATACCATAACAAGTGTACATAAATAATTATTGTA [XGTACX_site4949] | 9.69
TATATTACTTTGTGTTGTACGGAAATATATATATAT [XGTACX_site4309] | 9.63
AAAACTATTAAATGTAGTACATAATTATTGAAATAA [XGTACX_site8716] | 9.66
AAATACATATCATGTAGTACATATATATGTAGGTTA [XGTACX_site5392] | 9.92
ATAATTATTCTTATGGTGCACTGAATATACATGTTG [GTGCAC_site9760] | 9.81
ATAGCACATTTTTAAGCACACGTTTATTATATATAT [CACACA_site6084] | 9.82
CAAAAATATATTTTTTGTACACAAAAAAAAAATAAA [XGTACX_site5229] | 9.64
TTTTTATTGAGATACTTATATAATTTTATGAATAAA [XGTACX_negctrl_site311] | 9.16
TTTTTTTGCTCTTTTTATATATATATATATATATAT [GTGCAC_negctrl_site70] | 9.96

Sequence | gcPBM binding intensity (ln)
TTTGAAAAGTTGAAATGTACACATTTACACATATTT [XGTACX_site1641] | 9.64
TGTTGTATTTTTACAACACACATTTAATCCATTTAA [CACACA_site1507] | 9.63
CTTATATATTGGGATAGTACTTTTAACTAAATAGAA [XGTACX_site5900] | 9.27
ACTTTACGAATTAAGAGTACTTATTTAAGGAACACT [XGTACX_site7919] | 9.51
ATATAAAGTATGTTAGTGCACTTTTTTTTTTTTTTT [GTGCAC_site9419] | 9.62
GTAATACACATATAATGTACTCATAAATATATTTAT [XGTACX_site4041] | 9.77
TCATAGGAGAACTTTTGTACAGATTTTTCTTTTTTT [XGTACX_site2853] | 9.57
ATGTTAACTAAATGTACACACCTATGTTGATGTAAC [CACACA_site5073] | 9.8
TATATATATAAAATATGTACATAAAATTATTTATTT [XGTACX_site7666] | 9.64
AAAGTTTAAATGAGAAGTACAAATTTTTGTTTTTAT [XGTACX_site1844] | 9.52
GTGGTTGTAATGGTGGTGCATATTGTATATTATGTT | 10.1
AATATAAGTGTACATACACACTTTACAATATCATAT [CACACA_site5634] | 9.76
AATTTTATATATATATGTACATATTTATATGCTTAT [XGTACX_site8180] | 9.8
TTTCTATATCTTTCAACACACAAATTTTTTTTTCCA [CACACA_site108] | 9.69
ACATACATACCCCCACGTACGTACCGAAACACCACC [XGTACX_site1982] | 9.84
CAAAGAACTTATAGGGTGCTTTACTTATAAGTAAAT [GTGCAC_site9579] | 9.5
TTACTACTATATTATACACACATATATATATATATA [CACACA_site2621] | 9.96
TTTATTTATGTAGATACACACCCATGTTATATGGAG [CACACA_site9144] | 9.6
TTCTAATATTTTTGCACACTAAACAATAAATTTCCT [CACACA_site3944] | 9.78
